PubChem BioAssay AID1963445 (Molecular Pharmacology Branch, DTP, NCI, 2024)
Not every entry of the source has a single result; some have several. This list holds those alone. There may be further records. Values that stand side by side are repeated measurements across runs, samples, wells, individuals or studies.

System: MCF7 complex spheroid growth, % test/control
Assay: Anticancer human tumor MCF7 cell line growth inhibition [Asc];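 further: spheroids exposed to compounds for 7 days; 100% = DMSO vehicle control wells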
Conditions: stronger effect = lower value
Procedure: Multicellular complex tumor spheroid response to apoptosis pathway targeting inhibitors Alrizomadlin, Pelcitoclax, and Dasminapant in combination with a variety of drugs and investigational agents in selected tumor cell lines
The MDM2 inhibitor alrizomadlin, the Bcl-2/Bcl-xL inhibitor pelcitoclax, and the IAPs inhibitor dasminapant were evaluated both individually and in combination with standard of care and investigational anticancer small molecules within a complex spheroid model of solid tumors. . Complex spheroids include a stromal component modeled by human endothelial cells (HUVEC) and fibroblasts modeled by human mesenchymal stem cells (MSCs). The concentration ranges selected for each drug and investigational agent were based upon clinically achievable concentrations if the clinical Cmax of the agent was known.
Compounds. The drugs and investigational agents: alrizomadlin (APG-115; NSC831270), pelcitoclax (APG-1252; NSC835773), dasminapant (APG-1387;NSC834197), TAK-243 (NSC785004), copanlisib (NSC809693), olaparib (NSC753686), talazoparib (NSC767125), cobimetinib (NSC 768068), eltanexor (KPT-8602, NSC 794443), abemaciclib (NSC 768073), sotorasib (NSC818433), adagrasib (NSC 831453), MRTX-1133 (NSC 836407), Iadademestat (ORY1001, NSC 806812), and RMC-4630 (NSC839698), were obtained from the NCI Developmental Therapeutics Program Chemical Repository. The FDA-approved anticancer drug set is available from the Developmental Therapeutics Program at https://dtp.cancer.gov/organization/dscb/obtaining/available plates.htm. […] The stock solutions were prepared in dimethyl sulfoxide (DMSO, Sigma-Aldrich, St. Louis, MO, cat. D2650) at 800-fold the tested concentration and stored at -70 degrees C prior to their use. All drugs and investigational agents were tested over a range starting from a high concentration at or near the clinical Cmax and decreasing in half-log increments. If the clinical Cmax for an agent had not been determined, the highest concentration tested was 10 microM.
The patient-derived cancer (PDC) cell lines include five colon adenocarcinomas: 186277-243-T-J2-PDC, 616215-338-R-J1-PDC, 439559-082-T-J2-PDC, 463943-066-T-J2-PDC, and 519858-162-T-J1-PDC; three pancreatic carcinomas: 323965-272-R-J2-PDC, 521955-158-R6-J3-PDC, and 521955-158-R2-J5-PDC; two uterine sarcomas: 327498-152-R-J2-PDC and 993429-296-R-J1-PDC; two rhabdomyosarcomas: 755483-174-R-J1-PDC and 772245-204-R-J1-PDC; two soft tissue sarcomas: 126254-015-R-J1-PDC and 494315-158-R-J1-PDC; two malignant fibrous histiocytomas: 317291-083-R-J1-PDC and 596521-263-R-J1-PDC; two breast carcinomas: 171881-019-R-J1-PDC and 885512-296-R-J2-PDC; and one ovarian carcinoma: 6556581-035-R-J-PDC were obtained from the NCI PDMR, (https://pdmr.cancer.gov). The established cell lines HSSY-2 synovial sarcoma (RRID:CVCL 8719), SYO-1 synovial sarcoma (RRID:CVCL_7146), MPNST malignant peripheral neural sheath tumor were obtained from the Sloan Kettering Institute. The following established cell lines were purchased from the American Type Culture Collection (ATCC, Manassas, VA), Sor the received from the NCI repository:, PANC-1 pancreatic carcinoma (CRL-1469, RRID:CVCL_0480), OVCAR-5 ovarian carcinoma (RRID:CVCL_1628), OVCAR-8 ovarian carcinoma (RRID:CVCL_1629), , MCF-7 breast carcinoma (CRL-12584, RRID:CVCL_0031), MDA-MB-231 breast carcinoma (CRL-12532, RRID:CVCL_0062), NCI-H1876 small cell lung carcinoma (CRL-5902, RRID:CVCL_1503), NCI-H510A small cell lung carcinoma (HTB-184, RRID:CVCL_1565), NCI-H1417 (CRL-5869, RRID:CVCL_1469), and NCI-H196 small cell lung carcinoma (CRL-5823, RRID:CVCL_1509). Dr. Peter Houghton (Greehey Children's Cancer Research Institute, University of Texas Health Science Center, San Antonio, TX) provided Rh-18 rhabdomyosarcoma (RRID:CVCL_1659). Pooled donor human umbilical vein endothelial cells (HUVEC, Lonza, cat. CC-2519) and human mesenchymal stem cells (hMSC, Lonza, cat. PT-2501) were purchased from Lonza (Walkersville, MD).
Cell Culture. […]

CNC(C)C(=O)NC1CN(S(=O)(=O)c2cccc(S(=O)(=O)N3CCC4CCC(C(=O)NC(c5ccccc5)c5ccccc5)N4C(=O)C(NC(=O)C(C)NC)C3)c2)CCC2CCC(C(=O)NC(c3ccccc3)c3ccccc3)N2C1=O (stereo unspecified)
viability, T/C (compound alone 0.00316 µM): 91.6, 74.3, 14, 36.3, 39.6, 37, 39.7, 33.5, 18%

Cc1c(S(C)(=O)=O)c(-c2cc(F)cc(N3CCN(c4ccc(NS(=O)(=O)c5ccc(NC(CCN6CCC(C(=O)OCCCP(=O)(O)O)CC6)CSc6ccccc6)c(S(=O)(=O)C(F)(F)F)c5)cc4)CC3)c2)c(-c2ccc(Cl)cc2)n1C(C)C (stereo unspecified)
viability, T/C (compound alone 0.1 µM): 109, 90.5, 87.4, 86.6, 91.1, 104, 77.5% | viability, T/C (compound alone 0.316 µM): 104, 93.8, 81.6, 74.6, 86.2, 101, 92.4% | viability, T/C (compound alone 1 µM): 105, 90.9, 78.2, 88.6, 83.9, 88.8, 94.6% | viability, T/C (compound alone 3.16 µM): 91.9, 90.5, 83.4, 92.6, 103, 99.3, 76.3%

CCN1C(C(=O)NC23CCC(C(=O)O)(CC2)CC3)C(c2cccc(Cl)c2F)C2(C(=O)Nc3cc(Cl)ccc32)C12CCCCC2 (stereo unspecified)
viability, T/C (compound alone 0.03 µM): 87.8, 91.2, 82.1, 66.8, 94, 98.6, 77.8, 79.4, 69.9%
